Results reported in PMC5892938.
This is one part of the list. At the low end of the ranking the order means little.

Molecular target: GST-SBP-SLBP (stem-loop binding protein) (UniProt Q14493)
Experiment: targeted RNA Bind-n-Seq;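 note: DESeq read counts versus GST-SBP nonspecific binding control pulldown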
Conditions: RBNS binding buffer: 25 mM Tris pH 7.5, 150 mM KCl, 3 mM MgCl2, 0.1% Tween, 0.5 mg/mL BSA, 1 mM DTT; 27 nM protein, 750 pM RNA pool; temperature not stated; high values mean tight binding

| Sequence | binding signal (log2 fold change) |
| --- | --- |
| GGUCACGUCUCAAUCAACUCUAUAGAGGGGGGGAAAACCCCUUUGCCCUCCAAUUCAACAGCUCGCAGUCAAG | 0.162 |
| GGUCACGUCUCAAUCAACUCCUAAGAGGGGGGGAAAACCCCUUUACCCUCGUCCUCAACAGCUCGCAGUCAAG | 0.382 |
| GGUCACGUCUCAAUCAACUCUAUUUCAGGAGUUUCCUCCUGUAAACUCAACAGCUCGCAGUCAAG | -0.0986 |
| GGUCACGUCUCAAUCAACUCUUUUCCAGGAGUUUUCUCCUGUUUUCUCAACAGCUCGCAGUCAAG | -0.0946 |
| GGUCACGUCUCAAUCAACUCUUUAGAGGGGGGGAAAACCCCUUUACCCUCCAUAUCAACAGCUCGCAGUCAAG | -0.111 |
| GGUCACGUCUCAAUCAACUCUUUCUCCAGGGAAACCCCUGGCAAACUCAACAGCUCGCAGUCAAG | -0.057 |
| GGUCACGUCUCAAUCAACUCAUUCCCAGGAGUUUUCUCCUGCAUAGUCAACAGCUCGCAGUCAAG | 0.16 |
| GGUCACGUCUCAAUCAACUCUUCCUCCAGGGAAAUCCCUGGUUUAUUCAACAGCUCGCAGUCAAG | -0.144 |
| GGUCACGUCUCAAUCAACUCUCCUGAGGGGGGGAAAACCCCUUUACCCUCUUAAUCAACAGCUCGCAGUCAAG | -0.311 |
| GGUCACGUCUCAAUCAACUCUAUCUCAGGAGUUUACUCCUGCAUACUCAACAGCUCGCAGUCAAG | 0.00323 |
| GGUCACGUCUCAAUCAACUCUUUCCCAGGAGUUUACUCCUGUUAUUUCAACAGCUCGCAGUCAAG | 0.138 |
| GGUCACGUCUCAAUCAACUCAAUCUCAGGAGUUUUCUCCUGUAUUCUCAACAGCUCGCAGUCAAG | 0.238 |
| GGUCACGUCUCAAUCAACUCAGUCUCCAGGGAAAUCCCUGGCUUUUUCAACAGCUCGCAGUCAAG | 0.172 |
| GGUCACGUCUCAAUCAACUCUUUUUCCAGGGAAAGCCCUGGCUUUUUCAACAGCUCGCAGUCAAG | 0.208 |
| GGUCACGUCUCAAUCAACUCAUCCUCAGGAGUUUCCUCCUGUUAAGUCAACAGCUCGCAGUCAAG | 0.328 |
| GGUCACGUCUCAAUCAACUCAAAGGAGGGGGGGAAAACCCCUUUACCCUCAUCGUCAACAGCUCGCAGUCAAG | 0.138 |
| GGUCACGUCUCAAUCAACUCAUUUUCAGGAGUUUCCUCCUGUUAACUCAACAGCUCGCAGUCAAG | -0.076 |
| GGUCACGUCUCAAUCAACUCAUACGAGGGGGGGAAAACCCCUUUACCCUCAUCAUCAACAGCUCGCAGUCAAG | 0.144 |
| GGUCACGUCUCAAUCAACUCUAAGGAGGGGGGGAAAACCCCUUUACCCUCACCAUCAACAGCUCGCAGUCAAG | -0.284 |
| GGUCACGUCUCAAUCAACUCAUUCCCAGGAGUUUCCUCCUGCAUAUUCAACAGCUCGCAGUCAAG | 0.189 |
| GGUCACGUCUCAAUCAACUCUCACGAGGGGGGGAAAACCCCUUUACCCUCCAAAUCAACAGCUCGCAGUCAAG | -0.14 |
| GGUCACGUCUCAAUCAACUCAACUUCAGGAGUUUACUCCUGCUAUCUCAACAGCUCGCAGUCAAG | -0.0186 |
| GGUCACGUCUCAAUCAACUCUUCGUCCAGGGAAAUCCCUGGCUAAUUCAACAGCUCGCAGUCAAG | -0.204 |
| GGUCACGUCUCAAUCAACUCUUUUUCCAGGGAAAUCCCUGGCAGUCUCAACAGCUCGCAGUCAAG | 0.0895 |
| GGUCACGUCUCAAUCAACUCAUUUCCCAGGGAAAUCCCUGGUAAUUUCAACAGCUCGCAGUCAAG | -0.0308 |

| Sequence | binding signal (log2 fold change) |
| --- | --- |
| GGUCACGUCUCAAUCAACUCUUUUCCCAGGGAAAUCCCUGGCUUAUUCAACAGCUCGCAGUCAAG | 0.04 |
| GGUCACGUCUCAAUCAACUCAACUUCAGGAGUUUACUCCUGCAAUUUCAACAGCUCGCAGUCAAG | -0.0602 |
| GGUCACGUCUCAAUCAACUCUUCGUCCAGGGAAAUCCCUGGUAAAUUCAACAGCUCGCAGUCAAG | 0.00514 |
| GGUCACGUCUCAAUCAACUCAUCCUCCAGGGAAAACCCUGGCUAUUUCAACAGCUCGCAGUCAAG | 0.0579 |
| GGUCACGUCUCAAUCAACUCACAAGAGGGGGGGAAAACCCCUUUGCCCUCACAAUCAACAGCUCGCAGUCAAG | 0.0571 |
| GGUCACGUCUCAAUCAACUCAUCUCCAGGAGUUUACUCCUGCAAAUUCAACAGCUCGCAGUCAAG | 0.0961 |
| GGUCACGUCUCAAUCAACUCUUCCUCCAGGGAAAACCCUGGUUUUCUCAACAGCUCGCAGUCAAG | 0.0178 |
| GGUCACGUCUCAAUCAACUCUUAAGAGGGGGGGAAAACCCCUUUGCCCUCAUCGUCAACAGCUCGCAGUCAAG | 0.171 |
| GGUCACGUCUCAAUCAACUCAAUCCCAGGAGUUUCCUCCUGCAUACUCAACAGCUCGCAGUCAAG | 0.0816 |
| GGUCACGUCUCAAUCAACUCCUUCGAGGGGGGGAAAACCCCUUUACCCUCUUCAUCAACAGCUCGCAGUCAAG | 0.429 |
| GGUCACGUCUCAAUCAACUCGCACGAGGGGGGGAAAACCCCUUUACCCUCAACAUCAACAGCUCGCAGUCAAG | -0.433 |
| GGUCACGUCUCAAUCAACUCUUUUUCAGGAGUUUUCUCCUGUUAUGUCAACAGCUCGCAGUCAAG | 0.129 |
| GGUCACGUCUCAAUCAACUCUACUCCAGGAGUUUCCUCCUGUAUACUCAACAGCUCGCAGUCAAG | 0.136 |
| GGUCACGUCUCAAUCAACUCAACUCCCAGGGAAAACCCUGGCAAUUUCAACAGCUCGCAGUCAAG | -0.171 |
| GGUCACGUCUCAAUCAACUCAAUCCCCAGGGAAAUCCCUGGUAAACUCAACAGCUCGCAGUCAAG | -0.195 |
| GGUCACGUCUCAAUCAACUCUAUCUCCAGGGAAAGCCCUGGUAUUUUCAACAGCUCGCAGUCAAG | -0.141 |
| GGUCACGUCUCAAUCAACUCAAUUCCAGGAGUUUACUCCUGUAUACUCAACAGCUCGCAGUCAAG | 0.157 |
| GGUCACGUCUCAAUCAACUCUUCUUCCAGGGAAAGCCCUGGUAAACUCAACAGCUCGCAGUCAAG | -0.221 |
| GGUCACGUCUCAAUCAACUCAUUUUCAGGAGUUUUCUCCUGCUAUCUCAACAGCUCGCAGUCAAG | 0.208 |
| GGUCACGUCUCAAUCAACUCAAAAGAGGGGGGGAAAACCCCUUUACCCUCCAAAUCAACAGCUCGCAGUCAAG | 0.159 |
| GGUCACGUCUCAAUCAACUCAACUUCCAGGGAAAACCCUGGUUUUCUCAACAGCUCGCAGUCAAG | 0.0504 |
| GGUCACGUCUCAAUCAACUCUUCCCCCAGGGAAAUCCCUGGUAUAUUCAACAGCUCGCAGUCAAG | -0.0643 |
| GGUCACGUCUCAAUCAACUCUAUCUCCAGGGAAAACCCUGGCUAUCUCAACAGCUCGCAGUCAAG | -0.049 |
| GGUCACGUCUCAAUCAACUCUAUCCCCAGGGAAAUCCCUGGCAAUUUCAACAGCUCGCAGUCAAG | -0.14 |
| GGUCACGUCUCAAUCAACUCAUCCUCCAGGGAAACCCCUGGUAUUUUCAACAGCUCGCAGUCAAG | 0.00703 |

| Sequence | binding signal (log2 fold change) |
| --- | --- |
| GGUCACGUCUCAAUCAACUCUUUUCCAGGAGUUUCCUCCUGCAUAUUCAACAGCUCGCAGUCAAG | 0.067 |
| GGUCACGUCUCAAUCAACUCUCAAGAGGGGGGGAAAACCCCUUUACCCUCCCAUUCAACAGCUCGCAGUCAAG | 0.0144 |
| GGUCACGUCUCAAUCAACUCAAUUCCAGGAGUUUUCUCCUGCAUACUCAACAGCUCGCAGUCAAG | 0.103 |
| GGUCACGUCUCAAUCAACUCUAAAGAGGGGGGGAAAACCCCUUUGCCCUCCAAAUCAACAGCUCGCAGUCAAG | 0.218 |
| GGUCACGUCUCAAUCAACUCAUUUCCAGGAGUUUUCUCCUGCUUUUUCAACAGCUCGCAGUCAAG | 0.0331 |
| GGUCACGUCUCAAUCAACUCUCCUGAGGGGGGGAAAACCCCUUUACCCUCUAUAUCAACAGCUCGCAGUCAAG | 0.0841 |
| GGUCACGUCUCAAUCAACUCAUCUCCAGGAGUUUACUCCUGUUAAUUCAACAGCUCGCAGUCAAG | 0.0263 |
| GGUCACGUCUCAAUCAACUCUUUUUCCAGGGAAACCCCUGGCUAACUCAACAGCUCGCAGUCAAG | 0.268 |
| GGUCACGUCUCAAUCAACUCAUUUUCAGGAGUUUCCUCCUGCAUAGUCAACAGCUCGCAGUCAAG | 0.135 |
| GGUCACGUCUCAAUCAACUCAACUCCCAGGGAAACCCCUGGCUUUUUCAACAGCUCGCAGUCAAG | -0.289 |
| GGUCACGUCUCAAUCAACUCUUUCCCCAGGGAAAUCCCUGGUUAAUUCAACAGCUCGCAGUCAAG | -0.03 |
| GGUCACGUCUCAAUCAACUCAAUCUCCAGGGAAACCCCUGGCUAUUUCAACAGCUCGCAGUCAAG | 0.00273 |
| GGUCACGUCUCAAUCAACUCUUCUCCCAGGGAAACCCCUGGUAAUGUCAACAGCUCGCAGUCAAG | 0.0213 |
| GGUCACGUCUCAAUCAACUCUUCCCCAGGAGUUUACUCCUGUAUAUUCAACAGCUCGCAGUCAAG | -0.211 |
| GGUCACGUCUCAAUCAACUCAGUUUCAGGAGUUUACUCCUGCUAUUUCAACAGCUCGCAGUCAAG | -0.119 |
| GGUCACGUCUCAAUCAACUCCAUAGAGGGGGGGAAAACCCCUUUACCCUCAUCCUCAACAGCUCGCAGUCAAG | 0.286 |
| GGUCACGUCUCAAUCAACUCAAUCUCCAGGGAAACCCCUGGCAAAUUCAACAGCUCGCAGUCAAG | 0.253 |
| GGUCACGUCUCAAUCAACUCUUCGGCAGGAGUUUACUCCUGGAUAUUCAACAGCUCGCAGUCAAG | 0.0367 |
| GGUCACGUCUCAAUCAACUCAUCCCCCAGGGAAAGCCCUGGCAAAUUCAACAGCUCGCAGUCAAG | 0.103 |
| GGUCACGUCUCAAUCAACUCCUUAGAGGGGGGGAAAACCCCUUUGCCCUCACUUUCAACAGCUCGCAGUCAAG | -0.00473 |
| GGUCACGUCUCAAUCAACUCUAUCCCAGGAGUUUACUCCUGCAAAUUCAACAGCUCGCAGUCAAG | -0.124 |
| GGUCACGUCUCAAUCAACUCAUCCCCAGGAGUUUCCUCCUGUUAUCUCAACAGCUCGCAGUCAAG | -0.0634 |
| GGUCACGUCUCAAUCAACUCUUCGUCCAGGGAAACCCCUGGCAAUUUCAACAGCUCGCAGUCAAG | 0.00791 |
| GGUCACGUCUCAAUCAACUCUACUCCAGGAGUUUACUCCUGUAUUCUCAACAGCUCGCAGUCAAG | -0.0668 |
